Assay results published in PMC4336329 (PLoS ONE, 2015).
About 2,200 (0.71%) of roughly 310,000 compounds showed an effect of 50% or more. Effects have a minus sign here. Some of the results follow.

These molecules were tested against human ether-à-go-go-related gene (hERG) potassium channel (human, UniProt Q12809) (assay: primary screen, population patch clamp on CHO cells stably expressing hERG).
human ether-à-go-go-related gene (hERG) potassium channel, sequence (Q12809 whole entry, looked up): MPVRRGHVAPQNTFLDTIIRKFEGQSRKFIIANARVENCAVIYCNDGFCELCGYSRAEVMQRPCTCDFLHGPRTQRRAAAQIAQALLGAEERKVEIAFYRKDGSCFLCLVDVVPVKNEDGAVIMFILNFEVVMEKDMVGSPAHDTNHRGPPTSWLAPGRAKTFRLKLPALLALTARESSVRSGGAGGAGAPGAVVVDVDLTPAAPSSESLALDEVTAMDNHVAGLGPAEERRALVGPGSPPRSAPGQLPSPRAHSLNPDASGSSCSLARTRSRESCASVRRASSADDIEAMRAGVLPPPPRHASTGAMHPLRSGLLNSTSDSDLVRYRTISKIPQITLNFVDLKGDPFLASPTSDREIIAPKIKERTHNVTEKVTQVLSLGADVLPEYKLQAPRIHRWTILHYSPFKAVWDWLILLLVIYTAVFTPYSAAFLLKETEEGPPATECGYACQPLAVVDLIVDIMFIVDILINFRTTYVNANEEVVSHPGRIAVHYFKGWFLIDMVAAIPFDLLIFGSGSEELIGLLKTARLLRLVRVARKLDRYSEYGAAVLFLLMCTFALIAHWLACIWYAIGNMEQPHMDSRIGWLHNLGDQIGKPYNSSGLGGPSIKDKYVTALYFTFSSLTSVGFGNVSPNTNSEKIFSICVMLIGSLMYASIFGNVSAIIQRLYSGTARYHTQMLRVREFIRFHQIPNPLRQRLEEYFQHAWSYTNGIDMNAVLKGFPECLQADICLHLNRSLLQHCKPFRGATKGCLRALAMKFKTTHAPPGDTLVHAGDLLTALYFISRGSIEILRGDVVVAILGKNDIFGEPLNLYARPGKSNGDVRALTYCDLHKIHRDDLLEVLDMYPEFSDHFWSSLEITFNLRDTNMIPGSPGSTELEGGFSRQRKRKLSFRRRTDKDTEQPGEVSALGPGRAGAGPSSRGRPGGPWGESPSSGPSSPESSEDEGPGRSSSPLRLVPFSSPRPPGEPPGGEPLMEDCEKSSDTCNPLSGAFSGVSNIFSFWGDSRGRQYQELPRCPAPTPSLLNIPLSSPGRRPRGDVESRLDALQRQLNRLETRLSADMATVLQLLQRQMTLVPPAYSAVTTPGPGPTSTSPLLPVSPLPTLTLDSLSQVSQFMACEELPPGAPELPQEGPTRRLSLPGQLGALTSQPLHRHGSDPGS

Row | Compound | hERG current change (%, negative = inhibition) at 1uM
1 | O=C(O)CCCC(=O)Nc1cccc(C(F)(F)F)c1 | 0.386%
2 | Cc1cc2oc(C(=O)Nc3nonc3C)c(C)c2cc1Cl | 19.7%
3 | Cc1nc2c(cc1NC(=O)c1ccccc1)nc(C)n2Cc1ccccc1 | 8.85%
4 | COc1cccc(NC(=S)/C(=C(\[O-])c2cc(C)n(-c3ccccc3F)c2C)[n+]2ccc(N(C)C)cc2)c1 | 12.4%
5 | COc1ccccc1NC(=O)CN1CC(=O)Nc2ccccc21 | 10.7%
6 | CCS(=O)(=O)NCCc1csc(C)n1 | 1.42%
7 | COc1ccc(C(=O)Nc2cccc(C(=O)N3CCN(C)CC3)c2)cc1 | 0.0352%
8 | CCc1nc(N2CCN(C(C)=O)CC2)c2c3c(sc2n1)CC(C(C)(C)C)CC3 (centres unmarked) | 11.6%
9 | CN1C(=O)CC(C(=O)O)SC1=Nc1cc(Cl)cc(Cl)c1 (centres unmarked) | 11.4%
10 | Cc1cc(N2CCCCCC2)nc(-c2ccccc2O)n1 | 10.4%
11 | CC(=O)Nc1cccc(C(=O)/C=C/c2ccc(N(C)C)cc2)c1 | 2.38%
12 | Cc1ccc(S(=O)(=O)Nc2ccc(-n3c(C)nc4ccccc4c3=O)cc2)cc1 | -7.86%
13 | COC(=O)CCC(=O)CN.Cl | 11.2%
14 | COc1ccccc1Cc1nc(-c2ccc(Br)o2)no1 | 12.7%
15 | O=C(Nc1ccc2c(c1)OCO2)c1ccc(S(=O)(=O)N2CCCC2)cc1 | 30.7%
16 | CN(C)/C=N/c1nc2nccc(-c3ccc(Cl)cc3)n2n1 | 16.4%
17 | CCOc1ccccc1N(C(=O)Nc1ccc(Cl)cc1)C1=NC(C)CS1 (centres unmarked) | 10.1%
18 | COc1ccc(Cl)cc1N(CC(=O)N1CCCCCC1)S(C)(=O)=O | 14%
19 | COc1ccccc1CNC(=O)CSc1ccc(Br)cc1 | 12.1%
20 | Cc1nccc(-c2ccc(-n3c(C)ccc3C)cc2)n1 | 8.39%
21 | CC(=O)Nc1c(NC(C)(C)C)c2ccccc2oc1=O | 13.9%
22 | COC(=O)c1ccc(/C=N/NC(=O)CC(=O)NC(C)C)cc1 | 8.28%
23 | Cc1cc(N)n2ncc(-c3cccc(Br)c3)c2n1 | 1.71%

Row | Compound | hERG current change (%, negative = inhibition) at 1uM
24 | O=C(CN1CCN(c2ccccc2F)CC1)Nc1ccccc1F | 8.33%
25 | CCN(CC)CCNCC(=O)Nc1ccc(Oc2ccccc2)cc1 | -21.2%
26 | O=C(OCC1CC(c2ccccc2)=NO1)c1ccc(Cl)cc1 (centres unmarked) | 10.6%
27 | CCOC(=O)C1=C(CN2CCCCCC2)NC(=O)NC1c1ccc2c(c1)OCO2 (centres unmarked) | -2.57%
28 | O=C(COC(=O)C1=COCCO1)Nc1ccc(Oc2ccccc2)cc1 | -2.95%
29 | COC(=O)CSc1nc2ccc(C)cc2[nH]1 | 15.8%
30 | Cc1ccccc1C(NC(N)=O)c1ccccc1 (centres unmarked) | 0.464%
31 | CCN1CCN(c2cc(C)c3cc(NC(=O)c4cnccn4)ccc3n2)CC1 | -1.78%
32 | COC(=O)CNC(c1ccccc1)c1cc(Br)ccc1NS(=O)(=O)c1ccc(C)cc1 (centres unmarked) | 5.38%
33 | COc1ccc(N/C=C\C(=O)c2ccc(Br)cc2)cc1OC | 5.43%
34 | Brc1ccc2[nH]ncc2c1 | 6.72%
35 | O=C(C1=C[C@H](c2ccccc2)C[C@H](OCCCCO)O1)N1CCOCC1 | 4.05%
36 | CC1=C(C)CC(C(=O)NNC(=O)c2csc3c2CCC(C(C)(C)C)C3)C(C(=O)O)C1 (centres unmarked) | 10.9%
37 | COc1ccccc1OCCSc1nnc(CNC(=O)c2ccco2)n1C | 24.3%
38 | COc1ccccc1CNC(=O)Cn1nc(C)c([N+](=O)[O-])c1C | 14%
39 | CCC(SCC(=O)OC)C(=O)Nc1nnc(C(C)C)s1 (centres unmarked) | 10%
40 | CCOC(=O)c1ccc(NC(=S)NCc2ccc(S(N)(=O)=O)cc2)cc1 | 12.1%
41 | O=C1CN(C(=O)CSc2nnnn2-c2ccc(Cl)cc2)c2ccccc2N1 | -2.98%
42 | COc1cc(C)c(C(=O)Oc2cc(C)c(C(=O)O)c(O)c2C)c(O)c1C(=O)O | 14%
43 | CCOCCn1c(SCc2cccc(C)c2)nc2c1c(=O)[nH]c(=O)n2C | -4.13%
44 | COc1ccc(-n2c(C)cc(C(=O)C[N+]34CCN(CC3)CC4)c2C)cc1.[Cl-] | 9.07%
45 | O=C(CNC(=O)c1sc2ccccc2c1Cl)NCc1cccnc1 | 15%
46 | CCOC(=O)c1sc(=S)n(-c2ccccc2Cl)c1SC | -9.44%

Row | Compound | hERG current change (%, negative = inhibition) at 1uM
47 | CC(C)CN(CC(C)C)S(=O)(=O)N1CCC(C(=O)NCc2ccc3c(c2)OCO3)CC1 | -8.66%
48 | CC(C)(Oc1ccc(Cl)cc1)C(=O)NCC1CCCO1 (centres unmarked) | 6.86%
49 | Cc1ccc(Cn2cccc2/C=C2/C(=N)N3C=CSC3=NC2=O)cc1 | 8.49%
50 | CCC(=O)/C=C1\Sc2ccc(OC)cc2N1CC | 3.49%
51 | CCc1cccc2c(C(=O)CN3C(=O)C(=O)N(C4CCCC4)C3=O)c[nH]c12 | 5.44%
52 | O=Cc1ccc(Cl)c(Cl)c1 | 6.17%
53 | Cc1ccccc1NC(=S)N(C)C1(c2ccccc2Cl)CCCCC1=O (centres unmarked) | 2.84%
54 | CSc1ccccc1OCc1cc(C(=O)N(C)Cc2cnccn2)no1 | 12.1%
55 | O=C(CSc1ncccc1-c1nc2ccccc2[nH]1)N1CCCCC1 | 5.43%
56 | CSc1ccc(/C=C(/Sc2nnc(-c3ccccc3)o2)C(=O)O)cc1 | 15.5%
57 | COc1cc(/C=C2\SC(=Nc3ccc(F)cc3)N(c3ccc(F)cc3)C2=O)ccc1OCC(=O)O | 11.5%
58 | O=C(Nc1nnc(Cc2ccc(Cl)cc2)s1)c1cccnc1 | 1.87%
59 | Cc1ccc(CNC(=O)CNS(=O)(=O)c2cccc3nsnc23)cc1 | 3.84%
60 | O=C(/C=C/c1cccs1)NC1CC1 | 11.7%
61 | O=C(NC(=S)Nc1cc(C(F)(F)F)ccc1Cl)c1ccccc1 | 4.35%
62 | Cc1ccc2cc(CCNS(=O)(=O)c3ccc(F)cc3)c(=O)[nH]c2c1C | 13%
63 | COc1ccccc1C(C)NCC(=O)NC(=O)NCc1ccco1 (centres unmarked) | 7.87%
64 | COCCNCCCOc1ccc(Cl)cc1Br.O=C(O)C(=O)O | 3.08%
65 | CCCCNC(=O)CC1N=C2c3ccccc3N=C(SCC(=O)Nc3cccc(C)c3)N2C1=O (centres unmarked) | 7.91%
66 | Cc1cc(Cl)ccc1NC(=O)CN1C(=O)C(=O)N(C2CCCC2)C1=O | 3.74%
67 | COc1ccc(O)c(C(=O)c2cnn(-c3ccccn3)c2)c1 | -2.68%
68 | O=C(Cc1n[nH]c(=O)c2ccccc12)NC(c1ccccc1)c1ccccc1 | 4.69%
69 | CCOC(=O)c1c(NC(=O)CNCC(O)CO)sc(C)c1C (centres unmarked) | -3.1%

Row | Compound | hERG current change (%, negative = inhibition) at 1uM
70 | Cc1ccc(C)c(NC(=O)c2cc3c([nH]c4ccccc43)c(C)n2)c1 | 14.7%
71 | CCOC(=O)c1cc(S(=O)(=O)N2CCN(Cc3ccccc3)CC2)cn1C | 7.46%
72 | CC1(C)C[C@@H]2C[C@@](C)(CN2C(=O)c2ccccc2)C1 | 11.5%
73 | C=CCc1cc(C)ccc1OCCCC(C(=O)OCC)C(=O)OCC | 8.9%
74 | O=C(CSc1c[nH]c2ccccc12)NCC1CCCO1 (centres unmarked) | 16%
75 | CC(=O)N/C(=C\c1ccc(F)cc1)C(=O)OC(C)C | 9.76%
76 | Cc1cccc(OCC(=O)OCC(=O)NCC2CCCO2)c1C (centres unmarked) | 12.7%
77 | CC(C)(C)OC(=O)N[C@@H](COCc1ccccc1)C(=O)N[C@@H](CO)[C@H](O)[C@@H]1C[C@@H]1C(=O)NC1CC1 | 11.9%
78 | O=C(/C=C/c1ccc(F)cc1)c1ccccc1Br | 1.99%
79 | COC(=O)c1ccc(CO/N=C/c2ccc(OC)cc2)o1 | 7.66%
80 | COC(C[C@@H](O)C[C@H](O)[C@H](C)OCc1ccccc1)OC | 15.6%
81 | C=CCOC(=O)C1=C[C@@H](c2coc3ccccc3c2=O)C[C@@H](OCc2ccc(CO)cc2)O1 | 5.04%
82 | COc1cccc2c1C(=O)O/C2=C/c1ccc2c(c1)OCO2 | 5.37%
83 | CN1C(=O)CSc2ccc(NC(=O)N3CCc4ccccc43)cc21 | 6.64%
84 | COc1ccc(/C=N/NC(=O)CC(=O)NCc2cccnc2)cc1[N+](=O)[O-] | -2.1%
85 | CCOC(=O)N1CCN(C(=O)c2nn(C)c3c2CSc2ccccc2-3)CC1 | -10.6%
86 | CC(C)(C)Nc1nc(Cl)nc(N(C#N)CN2C(=O)c3ccccc3S2(=O)=O)n1 | 16.1%
87 | CC1CCN(C(=O)COc2ccc(Nc3ccccc3)cc2)CC1 | 13.7%
88 | CC(C)N(C(=O)CSc1nnc(NC2CC2)s1)c1ccccc1 | -1.07%
89 | O=C(NC(Cc1cnc[nH]1)C(=O)O)c1ccccc1 (centres unmarked) | 7.49%
90 | CCNc1nc(N)nc(Oc2ccc(OCCOc3ccc(Cl)cc3Cl)nn2)n1 | 5.99%
91 | Cc1ccc(C(C)C)c(OCc2nnc3n2CCCCC3)c1 | -0.465%
92 | CCOc1ccc(N(C(=O)CNC(=O)c2ccco2)C(C(=O)NC2CCCC2)c2cccnc2)cc1 (centres unmarked) | 16.7%
